# Hit rate of the full screen: of about 45,000 compounds, about 200 (0.44%) were called active. About 7% were inconclusive and are not listed. Calls come from the whole dose curve; as a rule, active = well fitted activation curve with a large enough effect; inconclusive = small, poorly fitted or top-dose-only effect; inactive = no such curve, though single readings can be large or run the other way. The list shows a part of the results.
# Experiment: qHTS of TDP-43 Inhibitors: NCGC Sytravon Library Screen; note: 0% is about no effect; nearly all actives have a fitted effect of over 55% in size
# Conditions: yeast TDP-43 toxicity rescue, BacTiter-Glo growth, 24 h; series mostly up to 46.1 µM; growth rescue (activation): at the top concentration
# Description: The goal of this project is to identify new chemical probes capable of reversing the toxicity associated with TDP-43 which is associated with frontotemporal lobar degeneration and amyotrophic lateral sclerosis. These compounds will provide a complementary approach to deciphering the tangled mechanisms of toxicity and protection that we have uncovered through genome-wide genetic screens and are beginning to uncover in a large-scale proteomics analysis with mass spectroscopy. To this end, a miniaturized assay was developed to be screened against the Molecular Libraries Small Molecule Repository (MLSMR) to discover TDP-43 inhibitors. Please note that in the set-up this yeast-based assay compounds that inhibit as TDP-43, have a read-out as activators. NIH Chemical Genomics Center [NCGC] NIH Molecular Libraries Probe Centers Network [MLPCN] Assay Submitter (PI): Susan Lindquist, Whitehead Institute/MIT MLPCN Grant: R21 NS060957
# Dispense 2.5 microL yeast galactose medium per 1536-well plate, pin compound, dispense 2.5 microL TDP-43 expressing yeast in galactose medium at OD600=0.02 (pregrown in raffinose medium to mid-log phase) per well, incubate for 24 hr at 30 deg C, and cell growth will be measured using 5 microL of Bactiter/Glo reagent to entire plate and read using Luminescence Protocol in ViewLux.
row,Structure (SMILES),growth rescue (activation)
1,Cc1nc(N2CCCC2C(=O)O)c2oc3ccccc3c2n1 (configuration not stated),inactive: 5.07%
2,Cc1cc(NC(=O)CCN2C(=O)/C(=C/c3ccccc3Cl)SC2=S)no1,inactive: 14%
3,COc1ccc(CNc2cc(C)ccn2)cc1,inactive: -15.7%
4,C=CCc1c(C)[nH]c(=O)[nH]c1=O,inactive: 7.48%
5,O=C(CCN1C(=O)C2C3C=CC(C3)C2C1=O)NCCN1CCCc2ccccc21 (configuration not stated),inactive: 13.1%
6,CCOC(=O)c1c(-c2ccccc2)csc1NC(=O)c1cc(S(=O)(=O)N2CCOCC2)ccc1C,inactive: 21.5%
7,CCOc1cc(C)nc(N2CCC(C(=O)NC3CC3)CC2)n1,inactive: 4.88%
8,Cc1nc(NNC(=O)c2ccccc2)cc(-c2ccccc2)n1,inactive: -11.2%
9,Cc1ccccc1OCC(=O)NCCc1nc2ccccc2[nH]1,inactive: -2.59%
10,O=c1cc(-c2ccccc2)nc(/C=C/c2ccccc2)[nH]1,inactive: 35.9%
11,O=C(NCC(c1cccnc1)N1CCOCC1)NC1CCCCC1 (configuration not stated),inactive: 13.8%
12,CCS(=O)(=O)c1oc(-c2ccc(F)cc2)nc1S(=O)(=O)c1ccccc1,inactive: 1.32%
13,O=C(O)c1[nH]c2ccccc2c1C(c1cc(Cl)cc([N+](=O)[O-])c1O)c1c(C(=O)O)[nH]c2ccccc12,inactive: 12.4%
14,CC(=O)N[C@@H](Cc1c[nH]c2ccccc12)C(=O)OCc1ccc(C#N)cc1,inactive: 5.77%
15,COc1ccc(NC(=O)CCSc2ccc3ccccc3n2)cc1,inactive: 19.7%
16,Cc1nc(SCC(=O)Nc2nsc(-c3ccc(C(C)(C)C)cc3)n2)c2c3c(sc2n1)CCCC3,inactive: -5.26%
17,O=c1c2ccccc2[nH]c(=S)n1Cc1ccccc1Cl,inactive: 13.4%
18,NC(=O)c1ccsc1NC(=O)COC(=O)c1cccnc1Cl,inactive: 11.4%
19,Cc1ccc(NC(=O)C2(C)CCN2Cc2cccc3c2OCO3)cc1O (configuration not stated),inactive: 0.099%
20,Cc1ccc2c(C(=O)CN3CCCC(C)C3)c(C)[nH]c2c1 (configuration not stated),inactive: 15.5%
21,Cc1ccc(CN2C(=O)CSc3ccc(C(=O)NC4CC4)cc32)cc1,inactive: 5.63%
22,COc1ccc(OC)c(N(CC(=O)NC2CC3CCC2C3)S(=O)(=O)c2ccccc2)c1 (configuration not stated),inactive: 7.37%

row,Structure (SMILES),growth rescue (activation)
1,CC(C)c1ccccc1-n1c(SCc2cc(=O)oc3ccc4ccccc4c23)nnc1-c1cccnc1,inactive: -1.92%
2,Cn1c(NCCN2CCOCC2)nc2c1c(=O)n(Cc1cccc(Cl)c1)c(=O)n2C,inactive: 6.48%
3,CC/C(=N\NC(=S)Nc1cccc(C)c1)c1ccccc1,inactive: 11.1%
4,CCOC(=O)C1(Cc2cccc(OC)c2)CCN(C2CCOCC2)CC1,inactive: 4.29%
5,CN(C)/N=C/c1cn(-c2ccccc2)nc1-c1cccnc1,inactive: 16.7%
6,C/C(=N\NC(=O)c1ccccc1)c1cccc(Br)c1,inactive: 0.419%
7,OCc1ccccc1-c1cnc2sc(NCc3ccc(F)cc3)nn12,inactive: 5%
8,CCCCc1ccc(NC(=O)N[C@@H](C)C(=O)O)cc1,inactive: 12.8%
9,CC(C)C1N=C2c3ccccc3N=C(SCC(=O)c3ccc(O)c(O)c3)N2C1=O (configuration not stated),inactive: 12%
10,Cc1sc(NC(=O)CN(Cc2ccc(F)cc2)C(=O)C(C)(C)C)c(C(N)=O)c1C,inactive: 11.2%
11,Cc1cccc(NC(=O)c2csnn2)n1,inactive: 2.63%
12,O=C(Nc1ccccc1Cl)c1cc2ccccc2o/c1=N\O,inactive: -16%
13,CN(C)c1ccc(N2CC(C)(C)C2=O)cc1,inactive: 5.74%
14,COC(=O)CNc1cc(S(=O)(=O)N2CCCCC2)ccc1Oc1cccc(C)c1,inactive: -9.3%
15,COC(=O)c1ccc(N=C2SCC(=O)N2C)cc1,inactive: 25.6%
16,CCOc1ccc(/C(O)=C2\C(=O)C(=O)N(CCN(C)C)C2c2cc(OC)ccc2OC)cc1Cl (configuration not stated),inactive: 13.8%
17,CCOc1ccc(N2CC(C(=O)N3CCCC3)CC2=O)cc1 (configuration not stated),inactive: 0.717%
18,O=[N+]([O-])c1ccc(CS(=O)(=O)N2CCN(c3ccccc3)CC2)cc1,inactive: 0.13%
19,O=C(NCC1CCCN(Cc2ccc3nonc3c2)C1)c1ccc(F)cc1 (configuration not stated),inactive: -5.48%
20,O=C(NC(Cc1ccccc1)C(=O)O)/C(=C\c1ccc(Br)cc1)NC(=O)c1ccc(Br)o1 (configuration not stated),inactive: 14.4%
21,CCCNC(=O)C1(C)CCN(Cc2ccc3ccccc3c2Br)C1 (configuration not stated),inactive: 3.48%
22,COc1ccc(-c2nc3ccc([N+](=O)[O-])cc3o2)cc1,inactive: -6.56%

row,Structure (SMILES),growth rescue (activation)
1,CC(=O)N1CC(=O)N=C1SCC(=O)Nc1nc(-c2ccccc2)c(-c2ccccc2)s1,inactive: -6.49%
2,Cc1cc([N+](=O)[O-])ccc1NC(=O)CSc1nccc(=O)[nH]1,inactive: 0.222%
3,COC(=O)c1ccc(N(CC(=O)NC2CCCCC2)C(=O)CNC(=O)c2ccco2)cc1,inactive: 7.8%
4,CCc1nnc(NC(=O)CSc2nnc3c(C)cc4c(C)ccc(C)c4n23)s1,inactive: -11.6%
5,O=C(COc1ccc([N+](=O)[O-])cc1)Nc1ccc(C(=O)Nc2ccccc2C(=O)O)cc1,inactive: 3.64%
6,NCC(c1ccccc1)c1c[nH]c2ccccc12 (configuration not stated),inactive: 13.8%
7,Cc1[nH]c2ccccc2c1C(=O)CSc1ccccc1,inactive: 24.4%
8,COc1cc(/C=N/NC(=O)CCc2n[nH]c(=O)[nH]c2=O)cc(OC)c1OC,inactive: 13.2%
9,Cc1ccc(C)c(NC(=S)N(Cc2cccc(Br)c2)CC2CCC(C(=O)O)CC2)c1 (configuration not stated),inactive: -6.86%
10,CCNC(=O)CC1C(=O)N(c2ccc(F)cc2)C(=O)N1CCc1sccc1C (configuration not stated),inactive: 11.3%
11,CCCOc1cccc(C(=O)NCCNC(=O)c2ccccn2)c1,inactive: 3.06%
12,N#Cc1ccccc1S(=O)(=O)N1CCN(CC(=O)Nc2ccnn2C2CCCC2)CC1,inactive: 31.8%
13,Cc1cc(C)cc(NC(=O)c2ccc([N+](=O)[O-])o2)c1,inactive: -93.5%
14,O=C(CCn1cnc2ccccc21)N/N=C/c1ccc(O)cc1,inactive: 1.87%
15,CC(=O)NC1=NN(C(C)=O)C(C)(c2ccc(C)o2)S1 (configuration not stated),inactive: 8.92%
16,Cc1ccc(C)n1-c1nnc(N2CCCC(C(=O)Nc3ccccc3Br)C2)s1 (configuration not stated),inactive: 8.16%
17,Cc1ccc(NC(=O)CN(C)CC(=O)NC2CCCc3ccccc32)cc1 (configuration not stated),inactive: -23.4%
18,Oc1[nH]c2ccc(Br)cc2c1N=NC(=S)NCC1CCCO1 (configuration not stated),inactive: 14%
19,CC(C)(C)c1ccc(/C=C2\SC(=O)N(CCNC(=O)c3cccc(S(=O)(=O)N4CCOCC4)c3)C2=O)cc1,inactive: 3.64%
20,COc1ccc(/C=N/NC(=O)C(C)Sc2ccccn2)cc1[N+](=O)[O-] (configuration not stated),inactive: -3.95%
21,CC1CCN(C(=O)CSc2nc(N)c3c4c(sc3n2)CN(C)CC4)CC1,inactive: 14.3%
22,CCOc1ccc(N2CC(C(=O)Nc3ccccc3C(=O)N3CCOCC3)CC2=O)cc1 (configuration not stated),inactive: 1.76%

row,Structure (SMILES),growth rescue (activation)
1,COCCCNC(=O)c1cn(C)c(=O)c2c1c1ccccc1n2C,inactive: 8.38%
2,CC(SCc1ccccc1)C(=O)N/N=C/c1cccs1 (configuration not stated),inactive: 18.8%
3,O=C(CCCCCn1c(=O)c2sccc2n(CC(=O)Nc2cc(C(F)(F)F)ccc2Cl)c1=O)NCc1ccccc1Cl,inactive: 1.35%
4,CCn1ncc(-c2cc(C(=O)O)no2)c1C,inactive: -8.7%
5,CC1CN(CCOc2ccccc2[N+](=O)[O-])CC(C)O1 (configuration not stated),inactive: 2.26%
6,NC(CCCCCP(=O)(c1ccccc1)c1ccccc1)C(=O)O (configuration not stated),inactive: -7.84%
7,CCCN(CC(=O)Nc1ccc(F)c(F)c1F)C(=O)c1ccc2c(c1)NC(=O)CS2,inactive: 14.4%
8,O=C(N/N=C/C=C/c1ccco1)c1cccs1,inactive: 3.47%
9,COc1ccc(S(=O)(=O)NC(C)C(=O)Nc2ccc3c(c2)OCCO3)cc1OC (configuration not stated),inactive: 3.2%
10,CCn1c(SCC(=O)N/N=C/c2ccccc2OCC(=O)O)nnc1-c1ccc(OC)cc1,inactive: 7.41%
11,O=C(CN1CCN(S(=O)(=O)N2CCCCCC2)CC1)Nc1ccc(Br)cc1,inactive: 8.88%
12,CCC(=O)c1ccc(OCC(O)CNC(C)c2ccccc2)cc1 (configuration not stated),inactive: 8.91%
13,NS(=O)(=O)c1ccc(CNC(=O)c2cc(=O)c3ccccc3o2)cc1,inactive: 1.43%
14,O=C(O)C(c1ccccc1)C(c1ccccc1)c1ccccc1 (configuration not stated),inactive: 11.2%
15,Cc1cc(NC(=O)CCC(=O)N(CCC(C)C)C(C(=O)NC2CCCC2)c2ccccc2C)no1 (configuration not stated),inactive: 16.8%
16,COc1ccc(N2CCN(C(=O)c3oc4c(c3C)C(=O)CCC4)CC2)cc1,inactive: 5.7%
17,COc1cc(/C=N\NC(=O)c2cccnc2)ccc1OC(=O)c1ccccc1Cl,inactive: 6.38%
18,Clc1ccccc1/C=C/c1nc(-c2ccccn2)no1,inactive: 31.8%
19,CN(C)C=NC(=O)c1cccn1-c1ncc(C(F)(F)F)cc1Cl,inactive: 9.2%
20,CC(=O)Nc1ccc(Oc2ccc(NC(C)=O)c(NC(C)=O)c2)cc1,inactive: 9.2%
21,Cc1ccc2nc(-c3ccncc3)[nH]c2c1,inactive: 2.89%
22,CN1CCN(Cc2cc(COCc3ccccc3)c3cccnc3c2O)CC1,inactive: 8.94%

row,Structure (SMILES),growth rescue (activation)
1,CCNC(=S)Nc1cc(OCC)c(N2CCOCC2)cc1OCC,inactive: 22.6%
2,O=C(CN1CCN(c2ccccc2O)CC1)Nc1cccnc1Cl,inactive: -9.31%
3,COC(=O)/C=C/c1c(C)[nH]c(=O)[nH]c1=O,inactive: 0.748%
4,Cc1nnc(SCC(=O)Nc2ncc(S(=O)(=O)c3ccc([N+](=O)[O-])cc3)s2)s1,inactive: 1.36%
5,O=C1CN(S(=O)(=O)c2ccc(F)cc2)c2ccccc2N1,inactive: 2.52%
6,Cc1nc2cnccc2n1C,inactive: -2.32%
7,Cc1ccccc1Nc1nc(N)nc(COC(=O)c2cccc(S(=O)(=O)NCc3ccccc3)c2)n1,inactive: -13.2%
8,O=C(OCC(=O)N1CCCc2ccccc21)c1cccc(S(=O)(=O)N2CCc3ccccc32)c1,inactive: 12.3%
9,CCOc1ccc(NC(=O)Cn2nnc3c(cnn3-c3ccc(F)cc3)c2=O)cc1,inactive: 1.19%
10,CN(CCC1CCOCC1)C(=O)CC1C(=O)NCCN1Cc1ccoc1 (configuration not stated),inactive: 3.32%
11,COc1ccccc1NC(=O)COC(=O)c1cc(C)oc1C,inactive: 20.6%
12,COc1ccc(C(CC(=O)Nc2ccc(C(C)=O)cc2)N2Cc3ccccc3C2=O)cc1 (configuration not stated),inactive: 21.1%
13,COc1ccccc1CN1C(=O)c2cccc3cccc(c23)C1=O,inactive: 6.16%
14,COc1cc2c3c(c1)c(N=NC(N)=S)c(O)n3C(C)(C)C=C2C,inactive: 9.7%
15,Cc1ccc(CN2C(=O)c3ccccc3CC2(C)C(=O)NC2CCCCC2)cc1 (configuration not stated),inactive: 3.94%
16,COCCn1c(=NC(=O)c2ccc3c(c2)OCCO3)sc2cc(S(N)(=O)=O)ccc21,inactive: -5.64%
17,Cc1nnc(SCc2cc(=O)[nH]c(Nc3nc(C)c4cc(C)c(C)cc4n3)n2)s1,inactive: -1.88%
18,COc1ccc(-c2sc(Nc3ccc(F)c(F)c3F)nc2CCC(=O)NN)cc1,inactive: 36.1%
19,COc1ccc(N2CCOCC2)c(NC(=O)c2ccco2)c1,inactive: 18.7%

# — PubChem BioAssay AID1347073 (National Center for Advancing Translational Sciences (NCATS), 2019)
